Measured values reported in the supplement of paper PMC10126150.
Values marked as one replicate rest on one cluster of the flow cell; about a third of the high ones do not repeat.

Tested on: ATP
Assay: switch fluorescence ratio, 500 uM ATP over buffer (Cy3 cluster intensity, sum of 5 cycles each) (fold (ratio)); higher = stronger signal-on switching upon ATP binding; sequences stand for … in TCGTCGGCAGCGTCAGATGTGTATAAGAGACAGTTTTTTTTTTTTTTTTTTTTTTTTT…TC
Conditions: aptamer strand: ATP DNA aptamer (quencher-CACCTGGGGGAGTATTGCGGAGGAAGG + anchor), 100 nM annealed; ATP concentration: 500 uM; one replicate
In short: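 Five buffer/ATP imaging cycles were run on Cy3-labelled switching-strand clusters on a modified Illumina MiSeq flow-cell, with NaOH stripping and re-annealing between cycles. In each cycle, clusters annealed to 100 nM quencher-labelled ATP aptamer were imaged in selection buffer, then after 15 min with 500 uM ATP at 22 °C. Per cluster, the fluorescence ratio is summed target-cycle over summed buffer-cycle Cy3 intensity, averaged per switch-domain sequence. Only clusters within 100-1000 RFU were kept.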
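Also: ATP exposure 15 min at 22 °C before imaging.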

| Sequence | switch fluorescence ratio |
| --- | --- |
| GAATTACGTC | 1.17 |
| GAATTCTTGG | 1.02 |
| GAATTGACA | 1.03 |
| GAATTGACGG | 1 |
| GAATTGCGT | 1 |
| GAATTGGCGG | 1.01 |
| GAATTGGGAT | 1.03 |
| GAATTGTAGC | 0.958 |
| GAATTGTCCG | 1.03 |
| GAATTGTGCT | 0.952 |
| GAATTTATGA | 1.01 |
| GAATTTATT | 1 |
| GAATTTCCGA | 1.05 |
| GAATTTGCTT | 0.968 |
| GAATTTGTAG | 1.03 |
| GAATTTGTAT | 1 |
| GACAAACGG | 1.14 |
| GACAACATAA | 1.04 |
| GACAACCGGC | 1.11 |
| GACAATGATG | 0.977 |
| GACACAACGA | 1.18 |
| GACACAAGTC | 1.01 |
| GACACAGGGC | 1.21 |
| GACACCGAAC | 1.7 |
| GACACCGATC | 1.26 |

| Sequence | switch fluorescence ratio |
| --- | --- |
| GACACGTAGT | 1.04 |
| GACACTGGAT | 0.976 |
| GACACTGGTC | 0.983 |
| GACAGATTGC | 0.964 |
| GACAGCCTTG | 1 |
| GACAGGAGAG | 0.988 |
| GACAGTCCAA | 0.993 |
| GACATATATC | 1.07 |
| GACATCCACG | 1.27 |
| GACATCGCGC | 1.17 |
| GACATCGGAA | 1.04 |
| GACATCTCCG | 1.07 |
| GACATGGAAG | 1.02 |
| GACATGGGGG | 0.987 |
| GACATTCTGT | 0.998 |
| GACATTTATG | 1.09 |
| GACCAAGCAT | 1.27 |
| GACCAATTGC | 1.24 |
| GACCACTCAA | 1.03 |
| GACCCAGCTG | 1.04 |
| GACCCAGGTC | 1.13 |
| GACCCATGAT | 0.976 |
| GACCCGACGT | 1.28 |
| GACCCGGAAT | 1.73 |
| GACCGAAGCT | 1.25 |

| Sequence | switch fluorescence ratio |
| --- | --- |
| GACCGCCTTC | 1.06 |
| GACCGGGAAG | 1.04 |
| GACCGTTTAT | 1.03 |
| GACCTAAAGT | 1.32 |
| GACCTAGGGC | 0.998 |
| GACCTCTATC | 1.04 |
| GACCTCTGTA | 1.03 |
| GACCTGAATG | 0.94 |
| GACCTGATGA | 1.01 |
| GACCTTAGCA | 1.15 |
| GACCTTGGCA | 1.04 |
| GACGAACCCT | 1.3 |
| GACGACACGG | 1.19 |
| GACGAGTGGG | 1.07 |
| GACGATTATC | 1.18 |
| GACGCACAAT | 1.61 |
| GACGCCTGGG | 0.971 |
| GACGCGAAGA | 1.31 |
| GACGCGCCAA | 0.999 |
| GACGCGGGCA | 1.03 |
| GACGCTCTTT | 0.995 |
| GACGCTTG | 1.09 |
| GACGGAAGTG | 0.966 |
| GACGGCGGGA | 1.04 |
| GACGGCTACA | 1.1 |

| Sequence | switch fluorescence ratio |
| --- | --- |
| GACGGGGTCG | 1.01 |
| GACGGGTGTT | 0.989 |
| GACGGTATTA | 1.1 |
| GACGGTGGGT | 1.02 |
| GACGGTTAAT | 1.04 |
| GACGTAATG | 1.02 |
| GACGTACTTA | 1.57 |
| GACGTCTT | 0.961 |
| GACGTGAGAT | 1.15 |
| GACGTGCTGT | 0.993 |
| GACGTGGCAA | 1.86 |
| GACGTGGGAT | 1.08 |
| GACGTGTATT | 0.997 |
| GACTAATGAC | 1.06 |
| GACTAGAAAG | 1.01 |
| GACTATACAC | 1.41 |
| GACTATGTTG | 1.04 |
| GACTATTTAT | 1.04 |
| GACTCAAAAT | 1.08 |
| GACTCATGTT | 0.999 |
| GACTCATTA | 1.04 |
| GACTCCACCG | 1.19 |
| GACTCCCCGT | 1.65 |
| GACTCCGGCC | 1.92 |
| GACTCCGGTA | 3.98 |

| Sequence | switch fluorescence ratio |
| --- | --- |
| GACTCCGTCG | 1.09 |
| GACTCGCTCA | 1.01 |
| GACTGACTT | 1.13 |
| GACTGCGGTT | 1 |
| GACTGGCATT | 1.04 |
| GACTGGGGCC | 1 |
| GACTGGTTAA | 1.01 |
| GACTTAATGC | 1.4 |
| GACTTAGCCT | 1.04 |
| GACTTAGTTT | 1.02 |
| GACTTCAAGA | 1.01 |
| GACTTCGCTG | 1.25 |
| GACTTCTAAC | 1.03 |
| GACTTGAAAA | 1.03 |
| GACTTGGACG | 0.989 |
| GACTTTCCGC | 1.5 |
| GACTTTCGGG | 1.02 |
| GACTTTCTAT | 1 |
| GACTTTTAAC | 0.979 |
| GACTTTTCAG | 1.03 |
| GACTTTTCTC | 1.01 |
| GACTTTTGAC | 1.02 |
| GAGAACCTG | 0.988 |
| GAGAACGGGA | 0.986 |
| GAGAACGGGT | 1.01 |

| Sequence | switch fluorescence ratio |
| --- | --- |
| GAGAACTTAG | 1 |
| GAGAAGCGGC | 0.982 |
| GAGAAGCTTA | 0.997 |
| GAGAATTATC | 0.979 |
| GAGACAGCGT | 0.984 |
| GAGACATCAT | 0.979 |
| GAGACATGAT | 1.05 |
| GAGACGCTAT | 1.24 |
| GAGACTGCGC | 0.99 |
| GAGACTGTTA | 1.03 |
| GAGACTTGAA | 1 |
| GAGACTTTCA | 1.1 |
| GAGAGGCAGA | 1.01 |
| GAGAGGCCCT | 0.981 |
| GAGAGGCTTA | 0.958 |
| GAGAGGGA | 1.08 |
| GAGAGGTTAT | 1.03 |
| GAGAGTAAAG | 1.03 |
| GAGAGTACAC | 0.991 |
| GAGAGTGCTT | 1.02 |
| GAGAGTTTTA | 0.996 |
| GAGATCATGG | 1.04 |
| GAGATCTATA | 1.01 |
| GAGATGGCTG | 0.984 |
| GAGATTTACT | 1 |

| Sequence | switch fluorescence ratio |
| --- | --- |
| GAGATTTCTG | 0.922 |
| GAGCAAAGGA | 1.02 |
| GAGCACTGCG | 1.06 |
| GAGCAGGAAA | 0.985 |
| GAGCAGTCCT | 1.18 |
| GAGCATGGGT | 1.06 |
| GAGCATTGCA | 1.06 |
| GAGCATTGCT | 1.06 |
| GAGCCAACGA | 0.988 |
| GAGCCAGGAC | 1.1 |
| GAGCCATATC | 1.04 |
| GAGCCATCAC | 1.02 |
| GAGCCCCACG | 1.04 |
| GAGCCCCACT | 1.04 |
| GAGCCGAGTT | 0.996 |
| GAGCCTACCA | 1.05 |
| GAGCGCGACA | 0.991 |
| GAGCGCGCAG | 1.09 |
| GAGCGCTAGT | 1.01 |
| GAGCGTGCAG | 0.975 |
| GAGCGTGTTG | 0.961 |
| GAGCGTTTTG | 1.03 |
| GAGCTAGCGT | 0.971 |
| GAGCTAGGAC | 1.06 |
| GAGCTATCGG | 1.02 |

| Sequence | switch fluorescence ratio |
| --- | --- |
| GAGCTATTTA | 1.09 |
| GAGCTCAGAG | 0.973 |
| GAGCTGAGGA | 1.03 |
| GAGCTGGATT | 0.999 |
| GAGCTGGGAC | 1.06 |
| GAGCTTATA | 1.08 |
| GAGCTTCATA | 0.976 |
| GAGGAAACTT | 1.08 |
| GAGGAACCAT | 1.03 |
| GAGGAACGCA | 1.14 |
| GAGGACGGCG | 0.952 |
| GAGGACTTCG | 1 |
| GAGGAGACGA | 1.05 |
| GAGGATAATT | 0.998 |
| GAGGATATTG | 1 |
| GAGGCAAAGA | 1.17 |
| GAGGCAAGAA | 3.34 |
| GAGGCCGATC | 0.956 |
| GAGGCGCGGG | 0.956 |
| GAGGCGGGCG | 1.08 |
| GAGGCGTCGT | 1.03 |
| GAGGCTTCGA | 0.908 |
| GAGGGAAGTG | 0.974 |
| GAGGGCCAAT | 1.01 |
| GAGGGCGCGT | 0.993 |
